Lines with a small IC50 respond at low doses; fits outside the tested doses are given as limits. AUC, from the same fit, is the share of area under the viability curve across the 256-fold dose range; values near 1 show little effect. For some of these results: An inferred top dose was derived from the fitted curves, not read from the paper. For some of these results: Drugs with an entry number were screened twice under separate entries, and the two screens often disagree.
Assays:
Experiment in all cases: Viability of human cancer cell lines after 72 h of drug (GDSC screen)
[1] = compound: C/C=C(/C)C(=O)O[C@H]1C(C)=C2[C@H]([C@@H]1OC(=O)CCCCCCC)[C@@](C)(OC(C)=O)C[C@H](OC(=O)CCC)[C@@]1(O)[C@H]2OC(=O)[C@@]1(C)O [Thapsigargin]; conditions: top dose 0.512 µM; top dose inferred
Procedure: (§1)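 Human cancer cell lines in 384-well plates, medium with 10% serum, drug for 72 h over a 256-fold dose range (nine 2-fold or five 4-fold steps up to the top dose). Adherent lines were fixed and stained with the nucleic acid dye Syto60, suspension lines read with resazurin; signal relative to control wells, capped at 0 and 100%. One two-parameter sigmoid per drug and line, fitted in a mixed model over all curves with the slope shared within a line.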

[2] = compound: C=CC(=O)Nc1cc(-n2c(=O)ccc3cnc4ccc(-c5cn[nH]c5)cc4c32)ccc1C [QL-X-138]; conditions: top dose 10.24 µM; top dose inferred
Procedure: as §1

[3] = compound: CCn1c(-c2nonc2N)nc2cnc(Oc3cccc(NC(=O)c4ccc(OCCN5CCOCC5)cc4)c3)cc21 [GSK269962A]; conditions: top dose inferred
Procedure: as §1

[4] = compound: COc1cc(N2CCC(O)CC2)ccc1Nc1cc(Nc2ccccc2S(=O)(=O)C(C)C)c2cc[nH]c2n1 [MPS-1-IN-1]; conditions: top dose 20 µM; top dose inferred
Procedure: as §1

[5] = compound: COc1cc(O)c2c(c1)/C=C/C[C@H](O)[C@H](O)C(=O)/C=C\C[C@H](C)OC2=O [(5Z)-7-Oxozeaenol]; conditions: top dose 10 µM; top dose inferred
Procedure: as §1

[6] = compound: COc1cc2ncnc(-n3nc(-c4ccccn4)nc3N)c2cc1OC [CP466722]; conditions: top dose 16 µM; top dose inferred
Procedure: as §1

[7] = compound: COc1nc(C)cnc1NS(=O)(=O)c1cccnc1-c1ccc(-c2nnco2)cc1 [Zibotentan]; conditions: top dose 20 µM; top dose inferred
Procedure: as §1

[8] = compound: C[C@]1(c2nc3c(C(N)=O)cccc3[nH]2)CCCN1 [ABT-888]; conditions: top dose 5 µM; top dose inferred
Procedure: as §1

[9] = compound: Cc1ccc(-c2c(C(=O)CCl)n(CCCO)c3ncnc(N)c23)cc1 [CMK]; conditions: top dose 4 µM; top dose inferred
Procedure: as §1

[10] = compound: Cc1ccc(F)c(NC(=O)Nc2ccc(-c3cccc4[nH]nc(N)c34)cc2)c1 [ABT-869]; conditions: top dose 1.024 µM; top dose inferred
Procedure: as §1

[11] = compound: Cc1cnc(-c2cnc(NCCNc3ccc(C#N)cn3)nc2-c2ccc(Cl)cc2Cl)[nH]1 [CHIR-99021]
Procedure: as §1

[12] = compound: Nc1ccn([C@@H]2O[C@H](CO)[C@@H](O)[C@@H]2O)c(=O)n1 [Cytarabine]; conditions: top dose 2 µM
Procedure: as §1

[13] = compound: O=c1cc(-c2cccc3c2Sc2ccccc2S3)oc(N2CCOCC2)c1 [KU-55933]; conditions: top dose 10 µM
Procedure: as §1

[14] = top dose 2.5 µM, screen: GDSC drug entry 127
[15] = top dose 5 µM, screen: GDSC drug entry 1192
[16] = top dose 2.56 µM, screen: GDSC drug entry 154
[17] = top dose 10 µM, screen: GDSC drug entry 1241, top dose inferred

Row | Cell Line | AUC [1] | IC50 [1] [nM] | AUC [2] | IC50 [2] [nM] | AUC [3, 14] | IC50 [3, 14] [nM] | AUC [3, 15] | IC50 [3, 15] [nM] | AUC [4] | IC50 [4] [nM] | AUC [5] | IC50 [5] [nM] | AUC [6] | IC50 [6] [nM] | AUC [7] | IC50 [7] [nM] | AUC [8] | IC50 [8] [nM] | AUC [9] | IC50 [9] [nM] | AUC [10] | IC50 [10] [nM] | AUC [11, 16] | IC50 [11, 16] [nM] | AUC [11, 17] | IC50 [11, 17] [nM] | AUC [12] | IC50 [12] [nM] | AUC [13] | IC50 [13] [nM]
1 | SUP-M2 (anaplastic large cell lymphoma, suspension) | 0.292 | 9.82 | 0.237 | 141 | 0.944 | > 2500 | 0.763 | 1420 | 0.3 | 400 | 0.439 | 442 | 0.664 | 2530 | 0.994 | > 20000 | 0.994 | > 5000 | 0.907 | 3140 | 0.967 | > 1020 | 0.994 | > 2560 | 0.961 | > 10000 | 0.832 | 883 | 0.892 | 6910
2 | SUP-T1 (T-cell lymphoblastic leukaemia, suspension) | 0.592 | 55.8 | 0.672 | 1830 | 0.99 | > 2500 | 0.861 | 3630 | 0.888 | 19100 | 0.78 | 3730 | 0.589 | 1710 | 0.987 | > 20000 | 0.979 | > 5000 | 0.985 | > 4000 | 0.983 | > 1020 | 0.985 | > 2560 | 0.913 | > 10000 | 0.893 | > 2000 | 0.987 | > 10000
3 | SW684 (fibrosarcoma, adherent) | 0.866 | > 512 | 0.905 | > 10200 | 0.824 | > 2500 | 0.938 | > 5000 | 0.983 | > 20000 | 0.817 | 9280 | 0.962 | > 16000 | 0.983 | > 20000 | 0.983 | > 5000 | 0.92 | > 4000 | 0.982 | > 1020 | 0.914 | > 2560 | 0.912 | > 10000 | 0.955 | > 2000 | 0.964 | > 10000
4 | SW962 (urogenital system, adherent) | 0.355 | 11.4 | 0.829 | 8580 | 0.86 | > 2500 | 0.754 | 2070 | 0.945 | > 20000 | 0.532 | 779 | 0.893 | > 16000 | 0.98 | > 20000 | 0.968 | > 5000 | 0.794 | 2370 | 0.978 | > 1020 | 0.981 | > 2560 | 0.977 | > 10000 | 0.814 | 1440 | 0.928 | > 10000
5 | SW982 (soft tissue, adherent) | 0.195 | 3.83 | 0.682 | 2100 |  |  | 0.536 | 393 | 0.931 | > 20000 | 0.225 | 95.8 | 0.668 | 2980 | 0.984 | > 20000 | 0.969 | > 5000 | 0.768 | 1540 | 0.985 | > 1020 | 0.559 | 233 | 0.808 | 5360 | 0.223 | 18.9 | 0.93 | > 10000

— the supplement of paper PMC4967469
